{
  "source": "PubChem BioAssay AID360",
  "about": "(National Center for Advancing Translational Sciences (NCATS), 2006)",
  "note": "Among all 48,000 compounds or so, about 550 (1.1%) were called active. Not shown: some 4% with an inconclusive outcome. No stated cut-off is given here; in the data, active means potency below about 15 µM; inconclusive means mostly about 16 µM to 33 µM; inactive means weaker than that. This is one part of the list. Potency means the concentration at half of the fitted maximal effect.",
  "data": [
    {"biological_target": "Lysosomal acid glucosylceramidase (Homo sapiens) (UniProt P04062)", "sequence (P04062 whole entry, looked up)": "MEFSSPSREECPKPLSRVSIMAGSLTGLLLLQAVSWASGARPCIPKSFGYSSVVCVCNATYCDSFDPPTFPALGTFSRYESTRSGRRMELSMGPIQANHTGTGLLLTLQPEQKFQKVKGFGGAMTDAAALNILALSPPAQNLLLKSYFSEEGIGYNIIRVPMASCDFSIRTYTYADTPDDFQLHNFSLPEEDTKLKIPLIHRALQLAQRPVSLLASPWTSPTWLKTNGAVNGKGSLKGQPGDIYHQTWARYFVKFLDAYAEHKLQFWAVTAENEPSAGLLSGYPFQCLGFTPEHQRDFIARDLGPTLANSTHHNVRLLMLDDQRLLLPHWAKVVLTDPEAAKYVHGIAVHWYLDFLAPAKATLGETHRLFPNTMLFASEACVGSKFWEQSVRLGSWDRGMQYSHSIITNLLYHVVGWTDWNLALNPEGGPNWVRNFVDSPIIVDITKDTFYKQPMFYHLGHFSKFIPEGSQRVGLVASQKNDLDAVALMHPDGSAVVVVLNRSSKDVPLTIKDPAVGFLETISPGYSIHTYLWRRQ", "assay": "Glucocerebrosidase;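 further: the screen sought inhibitors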", "settings": "purified enzyme, resorufin glucoside fluorescence (screen aimed at inhibitors), 20 min; series mostly up to 77 µM", "in_short": "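Compounds titrated against 0.2 nM normal enzyme, 30 uM resorufin beta-D-glucopyranoside substrate, citrate/phosphate buffer with taurocholate and tween-20, pH 5.9. Reaction ran 20 min at room temperature; fluorescence (Ex 548/Em 600) gave AC50.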", "values": [
      {"molecule": "Cc1ccc(Cl)cc1NC(=O)COC(=O)C1CCCC1", "Potency": "inactive: > 76.9 µM"},
      {"molecule": "CCn1nc(NC(=O)c2ccco2)c2cc3ccc(C)cc3nc21", "Potency": "inactive: > 76.9 µM"},
      {"molecule": "CCOC(=O)N1CCC(NC(=O)C(CC(C)C)NC(=O)C2CCCCC2)CC1", "note": "(stereo not given)", "Potency": "inactive: > 76.9 µM"},
      {"molecule": "CCOC(=O)C1CCN(C(=O)COc2ccc(Cl)cc2Cl)CC1", "Potency": "inactive: > 76.9 µM"},
      {"molecule": "Cc1ccc(C2C(C(=O)c3sc(C)nc3C)=C(O)C(=O)N2CCN(C)C)o1", "note": "(stereo not given)", "Potency": "inactive: > 76.9 µM"},
      {"molecule": "O=C(NCSC1=NCCS1)c1ccccc1", "Potency": "inactive: > 76.9 µM"},
      {"molecule": "Cc1c(NC(=O)c2ccc(N3C(=O)C4C5C=CC(C5)C4C3=O)cc2)c(=O)n(-c2ccccc2)n1C", "note": "(stereo not given)", "Potency": "inactive: > 76.9 µM"},
      {"molecule": "COc1ccc(-c2cc(C(=O)OCC(=O)N(C)C)c3ccccc3n2)cc1", "Potency": "inactive: > 76.9 µM"},
      {"molecule": "Cc1ccc(C)c(N2CCN(C(=O)CCCCn3c(=O)[nH]c4ccccc4c3=O)CC2)c1", "Potency": "inactive"},
      {"molecule": "c1ccc(-n2nnc3c(N4CCOCC4)ncnc32)cc1", "Potency": "inactive: > 76.9 µM"},
      {"molecule": "c1ccc(CSc2nncn2-c2ccccn2)cc1", "Potency": "inactive: > 76.9 µM"},
      {"molecule": "COCCn1c(C)cc(C(=O)CN2C(=O)NC3(CCCCCCC3)C2=O)c1C", "Potency": "inactive: > 76.9 µM"},
      {"molecule": "CC1(C)NC(=O)N(CC(O)CN2C(=O)CCC2=O)C1=O", "note": "(stereo not given)", "Potency": "inactive: > 76.9 µM"},
      {"molecule": "CCn1c(CNC(=O)c2ccc(OC)c(OC)c2)nnc1SCC(=O)c1ccc(OC)cc1", "Potency": "inactive: > 76.9 µM"},
      {"molecule": "Cc1ccccc1Cn1nc(C)c(NC(=O)c2noc3c2CCCC3)c1C", "Potency": "inactive: > 76.9 µM"},
      {"molecule": "CC1(c2ccc3noc(-c4ccccc4)c3c2)OCCO1", "Potency": "inactive: > 76.9 µM"},
      {"molecule": "Cc1nnc(SCC(=O)Nc2ccc3c(c2)OCCO3)n1CC1CCCO1", "note": "(stereo not given)", "Potency": "inactive: > 76.9 µM"},
      {"molecule": "CC1CN(c2ncnc3c2oc2ccccc23)CC(C)O1", "note": "(stereo not given)", "Potency": "inactive: > 76.9 µM"},
      {"molecule": "O=C(O)c1oc2ccccc2c1CSc1ccccn1", "Potency": "inactive: > 76.9 µM"},
      {"molecule": "CC(C)(C)c1cc(C(=O)O)nn1-c1ccccc1", "Potency": "inactive: > 76.9 µM"},
      {"molecule": "CN1C(=O)c2oc3ccccc3c(=O)c2C1c1ccccn1", "note": "(stereo not given)", "Potency": "inactive: > 76.9 µM"},
      {"molecule": "COC(=O)c1cccc(NC(=O)c2cccc(OC)c2)c1", "Potency": "inactive: > 76.9 µM"},
      {"molecule": "CCOC(=O)C(C)Sc1nnc2n1C(C)(C)Cc1ccccc1-2", "note": "(stereo not given)", "Potency": "inactive: > 76.9 µM"},
      {"molecule": "Cc1cccc(CCN(Cc2cc3cccc(C)c3[nH]c2=O)C(=O)N2CCOCC2)c1", "Potency": "inactive: > 76.9 µM"},
      {"molecule": "CCOC(=O)c1cc2sccc2n1CC(=O)Nc1ccc(OC)c(OC)c1", "Potency": "inactive: > 76.9 µM"},
      {"molecule": "O=C(CSc1nnc(-c2cccs2)o1)N1CCOCC1", "Potency": "inactive: > 76.9 µM"},
      {"molecule": "COc1cc(C(=O)Nc2cc(C)ccn2)cc(OC)c1OC", "Potency": "inactive: > 76.9 µM"},
      {"molecule": "C=CCn1c(SCc2ccc(C#N)cc2)nnc1-c1cccc(Cl)c1", "Potency": "inactive: > 76.9 µM"},
      {"molecule": "Cc1ccc2c(c1C)NC(C)CC2C", "note": "(stereo not given)", "Potency": "inactive: > 76.9 µM"},
      {"molecule": "COc1ccc(CCN2C(=O)C3C4C=CC(C4)C3C2=O)cc1OC", "note": "(stereo not given)", "Potency": "inactive: > 76.9 µM"},
      {"molecule": "O=C(CN1C(=O)C2C3C=CC(C3)C2C1=O)NCc1ccc2c(c1)OCO2", "note": "(stereo not given)", "Potency": "inactive: > 76.9 µM"},
      {"molecule": "Cc1onc(-c2c(F)cccc2Cl)c1C(=O)NCCc1ccc(S(N)(=O)=O)cc1", "Potency": "inactive: > 76.9 µM"},
      {"molecule": "COc1ccccc1C(=O)Nc1nnn(C)n1", "Potency": "inactive: > 76.9 µM"},
      {"molecule": "COC(=O)C1C(=O)c2c(n[nH]c2C)CC1(C)C", "note": "(stereo not given)", "Potency": "inactive: > 76.9 µM"},
      {"molecule": "Cn1c(SCc2nc3ccccc3[nH]2)nnc1-c1cnccn1", "Potency": "inactive: > 76.9 µM"},
      {"molecule": "CCOCCCNS(=O)(=O)c1ccc(NC(=O)c2ccccc2)cc1", "Potency": "inactive: > 76.9 µM"},
      {"molecule": "O=C(O)CCc1nc(-c2ccc(Cl)cc2)no1", "Potency": "inactive: > 76.9 µM"},
      {"molecule": "O=C(OCC(=O)N1CCN(C(=O)c2ccco2)CC1)c1ccccc1C(=O)c1ccccc1", "Potency": "inactive: > 76.9 µM"},
      {"molecule": "COc1ccc(-c2noc(C)c2-c2ccc3ccccc3n2)c(O)c1", "Potency": "inactive: > 76.9 µM"},
      {"molecule": "Cc1cc2c(c(=O)n1Cc1ccco1)C(c1cccnc1)C(C#N)=C(N)O2", "note": "(stereo not given)", "Potency": "inactive: > 76.9 µM"},
      {"molecule": "Cc1nn(-c2ccc(F)cc2)c2sc(C(=O)O)cc12", "Potency": "inactive: > 76.9 µM"},
      {"molecule": "Cn1c(SCC(=O)N2CCCc3ccccc32)nnc1-c1c[nH]c2ccccc12", "Potency": "inactive: > 76.9 µM"},
      {"molecule": "CCc1ccc(OCC(=O)OC2CCS(=O)(=O)C2)cc1", "note": "(stereo not given)", "Potency": "inactive: > 76.9 µM"},
      {"molecule": "CCc1ccc(OCCCC(=O)O)c(Br)c1", "Potency": "inactive: > 76.9 µM"},
      {"molecule": "CC1(C)Oc2ccc(C(=O)NC3CCCC3)cc2N(CC(=O)N2CCOCC2)C1=O", "Potency": "inactive: > 76.9 µM"},
      {"molecule": "CCOC(=O)c1ccc(NC(=O)COC)cc1", "Potency": "inactive: > 76.9 µM"},
      {"molecule": "CC(=O)Nc1ccc(N2CCN(C(C)=O)CC2)cc1", "Potency": "inactive: > 76.9 µM"},
      {"molecule": "Cn1cccc1C(=S)N=P(C1CCCCC1)(N1CCOCC1)N1CCOCC1", "Potency": "inactive: > 76.9 µM"},
      {"molecule": "CCOC(=O)c1cc2sccc2n1CC(=O)N1CCc2ccccc21", "Potency": "inactive: > 76.9 µM"},
      {"molecule": "O=C(Nc1ccccc1)c1cccnc1N1CCOCC1", "Potency": "inactive: > 76.9 µM"},
      {"molecule": "Cc1nn(Cc2ccc(Cl)cc2)c(C)c1NC(=O)c1cc(-c2ccc3c(c2)OCO3)on1", "Potency": "inactive: > 76.9 µM"},
      {"molecule": "COCCCn1c(=S)[nH]c2ccc(N3CCOCC3)cc2c1=O", "Potency": "inactive: > 76.9 µM"},
      {"molecule": "Cc1nc2ccccn2c1C(=O)NCCCN1CCOCC1", "Potency": "inactive: > 76.9 µM"},
      {"molecule": "COc1ccc(CC(=O)Nc2cc(C)ccn2)cc1", "Potency": "inactive: > 76.9 µM"},
      {"molecule": "O=C(Nc1nccs1)C1CCCN1S(=O)(=O)c1ccc(Cl)cc1", "note": "(stereo not given)", "Potency": "inactive: > 76.9 µM"},
      {"molecule": "CCc1ccc(N/C(SCc2cccc(F)c2)=C(/C#N)C(=O)NCc2ccco2)cc1", "Potency": "inactive: > 76.9 µM"},
      {"molecule": "COc1ccc(CCNC(=O)c2ccc(CN3CCOCC3)cc2)cc1", "Potency": "inactive"},
      {"molecule": "On1onc2c3cc(-c4ccccc4)nc3ccc21", "Potency": "active: 14.7 µM"},
      {"molecule": "CC1=C(C(=O)NCc2ccccc2)C(c2cccnc2)n2ncnc2N1", "note": "(stereo not given)", "Potency": "inactive: > 76.9 µM"},
      {"molecule": "O=C1c2cccnc2C(O)N1Cc1ccccc1", "note": "(stereo not given)", "Potency": "inactive: > 76.9 µM"}
    ]}
  ]
}
